Data on one molecule can be found in patent US20250059201A1, “CAMPTOTHECIN COMPOUND AND CONJUGATE THEREOF” (priority 2021, published 2025).

Experiment [1] relates to BxPC-3. The experiment can be described thus: Proliferation-inhibiting effect on tumor cells (SRB or MTT assay). The format is cell-based, human. To be noted: BxPC-3, 144 hours, experiment not stated; read-out: IC50. The protocol:
(§1) For cells growing by adherence, SRB assay was used to detect effect of antibody-drug conjugates or camptothecins on the proliferation of tumor cells in vitro cultured. A certain number of cells in exponential growth phase were inoculated in 96-well cell culture plates, and when the cells grew by adherence overnight, antibody drug conjugates or camptothecins of different concentrations were added into the cells. 144 hours later, the cells were fixed with trichloroacetic acid, and then stained with SRB (prepared in 1% glacial acetic acid at a concentration of 4 mg/mL). 10 mM Tris solution was added into each well to solubilize the bound SRB. OD values at 510 nm were read on a microplate reader.
(§2) Inhibition (%)=([…] of control well−OD value of dosed well)/OD value of control well×100%
(§3) For cells growing in suspension, MTT assay was used to detect effect of antibody-drug conjugates or camptothecins on the proliferation of tumor cells in vitro cultured. A certain number of cells in exponential growth phase were inoculated in 96-well cell culture plates, and when the cells grew in suspension overnight, antibody-drug conjugates or camptothecins of different concentrations were added into the cells. 144 hours later, MTT was added to each well of the plates, and the incubation was continued for 4 hours at 37° C. in a 5% CO2 saturated humidity incubator. Next, 100 μL of SDS-isobutanol-HCl solution was added into each well of the plates, and OD values at 570 nm and 690 nm were read on a microplate reader.
(§4) Half maximal inhibitory concentration (IC50) was calculated from the inhibition (%) at those different concentrations using the software Graphpad Prism 8.0. The experiment was repeated once and the data was expressed as mean±SD.
In general terms: Formazan colour is commonly taken as a measure of viable cells.

Experiment [2] concerns Calu-3. The experiment is described as above. The format is cell-based, human. To be noted: Calu-3, 144 hours, experiment not stated; read-out: IC50. The protocol:
as §1, §2, §3, §4

The test system of experiment [3] is HT-29. The description is as above. The format is cell-based, human. The settings on record: HT-29, 144 hours, experiment not stated; read-out: IC50. The protocol:
as §1, §2, §3, §4

For experiment [4], the system named is HT1376. The description is as above. The settings on record: HT1376, 144 hours, experiment not stated; read-out: IC50. The format is cell-based, human. The protocol: as §1, §2, §3, §4
Experiment [5] deals with NCI-N87. Described as above. The format is cell-based, human. To be noted: NCI-N87, 144 hours, experiment not stated; read-out: IC50. The protocol:
as §1, §2, §3, §4

The test system of experiment [6] is BT-20. The description is as above. To be noted: BT-20, 144 hours, experiment not stated; read-out: IC50. The format is cell-based. The protocol: as §1, §2, §3, §4
The test system of experiment [7] is BT-474. The description is as above. The format is cell-based. To be noted: BT-474, 144 hours, experiment not stated; read-out: IC50. The protocol: as §1, §2, §3, §4
For experiment [8], the system named is Colo 205. Described as above. The format is cell-based. To be noted: Colo 205, 144 hours, experiment not stated; read-out: IC50. The protocol:
as §1, §2, §3, §4

The test system of experiment [9] is MCF-7. The description is as above. The format is cell-based. The settings on record: MCF-7, 144 hours, experiment not stated; read-out: IC50. The protocol: as §1, §2, §3, §4
Experiment [10] concerns MDA-MB-231/TROP2. The experiment is described as above. The format is cell-based. The settings on record: MDA-MB-231/TROP2, 144 hours, experiment not stated; read-out: IC50. The protocol:
as §1, §2, §3, §4

The subject of experiment [11] is MDA-MB-231. The description is as above. The format is cell-based. The settings on record: MDA-MB-231, 144 hours, experiment not stated; read-out: IC50. The protocol:
as §1, §2, §3, §4

In experiment [12] the test system is MDA-MB-468. The description is as above. The settings on record: MDA-MB-468, 144 hours, experiment not stated; read-out: IC50. The format is cell-based. The protocol: as §1, §2, §3, §4
The test system of experiment [13] is BxPC-3 cells positive for Trop-2. The experiment can be described thus: Internalization function (flow cytometry of fluorescently labeled drug). The format is cell-based. To be noted: BxPC-3, 37° C., 3 to 48 hours, time-dependent. The protocol:
BxPC-3 cells (purchased from: ATCC) were inoculated into 6-well plates, and fluorescently labeled Trop2-ADC-14 and the mAb in Trop2-ADC-14 (i.e., antibody h23-12) each at 1 g/mL were added thereto respectively. The cells were incubated at 37° C. for 3, 6, 12, 18, 24, and 48 hours respectively, and then were digested with trypsin. The Trop2-ADC-14 and the mAb h23-12 not internalized were washed away, and fluorescence intensity was measured with a flow cytometer (BD ACCURI C6 PLUS). The experiment was repeated once.
A general note: Flow cytometry measures light scatter and fluorescence of single cells or particles in a stream.

Experiment [14] concerns BxPC-3 cells. The experiment can be described thus: Apoptosis-inducing effect. The format is cell-based. The settings on record: BxPC-3, 120 hours, over the tested concentrations. The protocol:
BxPC-3 cells (purchased from: ATCC) were inoculated into 6-well plates, and then treated with Trop2-ADC-14 (0.020, 0.196, and 1.963 nM), DS-1062 (0.020, 0.196, and 1.963 nM), the mAb in Trop2-ADC-14 (i.e., antibody h23-12) (6.728 nM) and Compound 3 (0.1, 1, and 10 nM) for 120 hours. Next, the cells were harvested, and Annexin-V-FITC and PI were added thereto, and the cells were stained at room temperature for 15 minutes in dark, and finally were re-suspended in the added 300 μl of 1× binding buffer. Apoptosis was detected with a flow cytometer (BD AccuriTMC6 Plus flow cytometer), for which 1×10^4 cells were gated for each group. Experimental data was analyzed using software BD CSampler™ Plus C6.

In experiment [15] the test system is Trop-2-positive BxPC-3 tumor cells. Description: Binding activity to cells positive for Trop-2 (flow cytometry). The settings on record: binding to BxPC-3 cells, on ice 1 hour, n = 2. The protocol:
(§5) Different concentrations (1, 3, 10, 30, 100, 300, 1000, 3000, 10000, 30000, and 100000 ng/mL) of fluorescently labeled Trop2-ADC-14 and the mAb in Trop2-ADC-14 (i.e., antibody h23-12) were incubated with BxPC-3 cells (purchased from: ATCC) on ice for 1 hour in dark, and then the cells were centrifuged to remove supernatant, washed with PBS, re-suspended, and the fluorescence intensity of the drugs bound to the cells was measured with a flow cytometer (BD ACCURI C6 PLUS). The experiment was repeated once.

The subject of experiment [16] is Trop-2-negative HT-29 cells. Description: Binding activity to cells negative for Trop-2. The protocol:
as §5

Usually IC50 stands for the concentration needed to halve the response being measured.

B1: h23-12 (antibody)
heavy: QVQLVQSGAEVKKPGASVKVSCKASGYTFTSYWMHWVRQAPGQGLEWMGEITPSDNYGSYNQKFKGRVTITRDTSTSTAYMELSSLRSEDTAVYYCARGHGNYVSFDYWGQGTLVTVSSASTKGPSVFPLAPSSKSTSGGTAALGCLVKDYFPEPVTVSWNSGALTSGVHTFPAVLQSSGLYSLSSVVTVPSSSLGTQTYICNVNHKPSNTKVDKRV[not shown - human IgG1 Fc]
light: DIQMTQSPSSLSASVGDRVTITCRASQDISNYLNWYQQKPGKAPKLLIYYTSRLESGVPSRFSGSGSGTDFTLTISSLQPEDFATYFCQQGYTLPPYTFGQGTKLEIKRTVAAPSVFIFPPSDEQLKSGTASVVCLLNNFYPREAKVQWKVDNALQSGNSQESVTEQDSKDSTYSLSSTLTLSKADYEKHKVYACEVTHQGLSSPVTKSFNRGEC
For B1, the IC50 in [1] is more than 67.3 nM; in experiment [2] it was more than 67.3 nM; in [3], more than 673 nM; in [4] it was more than 67.3 nM; in [5] it was more than 67.3 nM; in experiment [6], more than 67.3 nM. The IC50 in experiment [7] was more than 67.3 nM; in experiment [8], more than 67.3 nM; in experiment [9] it was more than 67.3 nM; in experiment [10] it was more than 67.3 nM; in [11], more than 673 nM; in experiment [12] it was more than 67.3 nM. Moreover, the internalization entry in experiment [13] is “internalized into the cells”. In addition, the apoptosis-inducing effect entry in [14] was “no significant apoptosis-inducing effect”. In addition, the “EC50 (ng/mL, mean ± SD)” value in experiment [15] was 1137.5 ± 128.0 ng/mL. The “binding to the Trop-2-negative HT-29 cells” value in experiment [16] was “no obvious binding”.
